# Laboratory results as given in PMC4336329 (PLoS ONE, 2015).
# Out of some 310,000 compounds screened, about 2,200 (0.71%) showed an effect of 50% or more. The effect is printed as a negative number. Some of the results follow.
# Molecular target: human ether-à-go-go-related gene (hERG) potassium channel (human, UniProt Q12809)
# Assay: primary screen, population patch clamp on CHO cells stably expressing hERG
# Sequence of human ether-à-go-go-related gene (hERG) potassium channel (Q12809 whole entry, looked up): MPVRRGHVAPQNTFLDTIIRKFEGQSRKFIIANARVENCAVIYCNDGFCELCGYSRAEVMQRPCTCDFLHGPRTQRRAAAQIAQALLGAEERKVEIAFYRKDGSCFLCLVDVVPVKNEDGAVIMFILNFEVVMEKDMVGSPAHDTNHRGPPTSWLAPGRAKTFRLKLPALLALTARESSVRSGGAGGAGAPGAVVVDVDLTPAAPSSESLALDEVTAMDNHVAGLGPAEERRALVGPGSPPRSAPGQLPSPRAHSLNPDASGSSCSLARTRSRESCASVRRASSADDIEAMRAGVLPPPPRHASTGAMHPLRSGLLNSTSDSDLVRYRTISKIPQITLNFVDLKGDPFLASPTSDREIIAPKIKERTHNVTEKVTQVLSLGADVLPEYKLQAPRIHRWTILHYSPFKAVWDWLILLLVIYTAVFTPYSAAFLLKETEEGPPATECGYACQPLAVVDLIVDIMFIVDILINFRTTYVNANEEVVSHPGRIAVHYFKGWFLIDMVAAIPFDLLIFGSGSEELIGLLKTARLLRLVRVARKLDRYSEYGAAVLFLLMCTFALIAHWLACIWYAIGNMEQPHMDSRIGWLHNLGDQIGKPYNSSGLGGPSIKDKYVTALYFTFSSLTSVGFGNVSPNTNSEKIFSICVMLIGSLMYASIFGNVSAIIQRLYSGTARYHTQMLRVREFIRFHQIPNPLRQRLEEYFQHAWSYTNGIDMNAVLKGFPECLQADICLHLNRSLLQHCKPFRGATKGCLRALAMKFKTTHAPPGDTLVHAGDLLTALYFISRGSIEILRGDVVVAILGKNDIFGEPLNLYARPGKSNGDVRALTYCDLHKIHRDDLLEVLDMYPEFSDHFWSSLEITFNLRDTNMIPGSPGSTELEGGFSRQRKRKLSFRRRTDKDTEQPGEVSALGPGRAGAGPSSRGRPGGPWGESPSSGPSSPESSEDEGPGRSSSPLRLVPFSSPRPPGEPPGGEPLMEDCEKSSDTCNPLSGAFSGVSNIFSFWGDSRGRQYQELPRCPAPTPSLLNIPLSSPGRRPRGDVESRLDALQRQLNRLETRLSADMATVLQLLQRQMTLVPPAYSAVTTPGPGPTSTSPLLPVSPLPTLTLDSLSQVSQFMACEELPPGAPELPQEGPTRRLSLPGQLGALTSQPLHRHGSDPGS
row,Compound,"hERG current change (%, negative = inhibition) at 1uM [%]"
1,CC1(C)CC(=O)C2=C(C1)OC(N)=C(C#N)C21CCN(C(=O)OCc2ccccc2)CC1,-0.0103
2,CCCC(=O)Nc1sc2c(c1C(=O)OCC)CC(C)(C)OC2,11
3,O=C(NC(=S)Nc1nc2ccccc2s1)c1cccs1,16.8
4,CCOC(=O)C1(Cc2ccc(OC)cc2)CCN(C(=O)CCc2cnccn2)CC1,10.2
5,COc1cccc(OC)c1C(=O)NC(=S)Nc1ccc2c(c1)OCCO2,13.5
6,CCCCn1c(Cc2ccccc2)n[nH]c1=S,9.59
7,Cc1ccc(S(=O)(=O)N2CCN(c3ccccc3)CC2)c(C)c1,16.7
8,Cc1ccc(-n2nc3c(N4CCC(C(=O)NCc5ccccc5C)CC4)nnc(C)c3c2C)cc1,11.3
9,O=C(COC(=O)CNC(=O)c1cccc([N+](=O)[O-])c1)Nc1cccc(S(=O)(=O)N2CCCCC2)c1,-5.96
10,CCN(CC)S(=O)(=O)c1ccc(/C=C/C(=O)Nc2ccc(F)cc2F)cc1,6.66
11,COC1Cc2ccccc2N(C(=O)N2CCN(CCO)CC2)c2ccccc21.Cl (stereo not shown),-6.58
12,C=C(C=O)CC1CC(O)[C@]2(C)OC3C[C@@H]4OC5C[C@]6(C)O[C@]7(C)CCC8OC9C[C@]%10(C)OC(/C(C)=C\CO)C(O)CC%10OC9CC(C)C8OC7CC6O[C@]5(C)C/C=C\C4OC3CC2O1 (stereo partly shown),7.21
13,CCN1CCCC(NC(=O)c2scc3c2CCCC3)C1 (stereo not shown),9.6
14,CCn1cc(C(=O)NCc2ccccc2OC)c(=O)c2ccc(C)nc21,18.3
15,CCOc1ccc(NC(=O)c2cccc(-n3cnnn3)c2)cc1,13.1
16,O=C(Nc1ccc(-c2nc3ncccc3o2)cc1)c1ccc(Br)o1,11.7
17,O=C(O)c1ccc(NC(=O)c2cn(-c3ccccc3)nc2-c2ccc(Cl)cc2)cc1,12
18,O=c1cc(C(F)(F)F)[nH]c2c(OC(F)(F)F)cccc12,4.32
19,O=C(N1CCOCC1)N1CCN(S(=O)(=O)c2ccc(Cl)cc2)CC1,3.43
20,Cc1ccc(OCC(O)CNS(=O)(=O)c2ccccc2C(=O)N2CCCCC2)cc1 (stereo not shown),0.361
21,Cc1ccc2oc(=O)cc(CN3CC(C)OC(C)C3)c2c1 (stereo not shown),15.5
22,O=C1N(c2ccccc2C(F)(F)F)O[C@@]1(c1ccccc1)C1CCCCC1,2.93

row,Compound,"hERG current change (%, negative = inhibition) at 1uM [%]"
1,Cc1ccc(NC(=O)C[n+]2cc(-c3ccc(C)cc3)n3c2CCC3)cc1.[Cl-],-15
2,Cn1c(COc2ccc([N+](=O)[O-])cc2)nnc1SCC(N)=O,4.02
3,COc1ccc(CN2CCC(=O)N([C@H](CO)CC(C)C)CC2)cc1,-1.27
4,CCOC(=O)C1CCC(CN(Cc2ccccc2C)S(=O)(=O)c2ccc([N+](=O)[O-])cc2)CC1 (stereo not shown),17.1
5,O=C(CSc1ncnc2c1oc1ccccc12)Nc1ccc2c(c1)OCCO2,6.96
6,CC1(C)NC(C(=O)O)Cc2c1[nH]c1ccccc21 (stereo not shown),8.54
7,COc1ccc(C(=O)/C=C/Nc2ccc(S(=O)(=O)Nc3cc(OC)nc(OC)n3)cc2)c(OC)c1,11.1
8,O=C(Nc1cccnc1)C1CCCN1S(=O)(=O)c1ccc(Cl)c(Cl)c1 (stereo not shown),-13
9,COc1ccccc1CNC(=O)COc1cccnc1[N+](=O)[O-],16.1
10,CC(=O)CC1(O)C(=O)N(Cc2ccccc2)c2ccccc21 (stereo not shown),2.2
11,CCn1cc(C(=O)NCC2COc3ccccc3O2)c2cc(OC)c(OC)cc2c1=O (stereo not shown),2.44
12,Cc1cc2cc(CN(Cc3cccs3)Cc3nnnn3CC3CCCO3)c(=O)[nH]c2cc1C (stereo not shown),1.6
13,CCCc1cc(=O)oc2c(C)c(OCC(=O)N3CCC(C(=O)O)(c4ccccc4)CC3)ccc12,-0.478
14,O=C(COc1coc(CN2CCN(c3ccccc3)CC2)cc1=O)NCC1CCCO1 (stereo not shown),11.2
15,O=C(CSCc1ccc(Cl)cc1)NN=C1CCCC1,8.83
16,CCOc1ccc(OCC)c(NC(=O)C2CCN(c3ncccn3)CC2)c1,-13.4
17,CS(=O)(=O)N(CC(=O)N1CCOCC1)c1cc(C(F)(F)F)ccc1Cl,16.8
18,CC(/C=C/c1ccccc1)=N\NC(=O)CSc1ccccn1,-1.91
19,Cc1ccccc1CN1CCN(CC(=O)NCc2ccco2)C1=O,15.5
20,Cc1cc(NC(=O)Nc2cc(Cl)sc2Cl)no1,10.3
21,CC(C)NC(=O)COC(=O)c1ccccc1Oc1ccccc1,-2.8
22,CCOc1ccc(C(C(=O)Nc2ccc(F)cc2)N(C(=O)Cn2nnc3ccccc32)C2CC2)cc1 (stereo not shown),-13

row,Compound,"hERG current change (%, negative = inhibition) at 1uM [%]"
1,N#CCCN1CCN(C(=S)c2ccc(-c3cc(Cl)ccc3Cl)o2)CC1,2.02
2,CCC1CCc2sc(C(=O)NCC(c3ccccc3OC)N3CCCC3)cc2C1 (stereo not shown),4.93
3,O=C(CCn1c(=S)oc2ccccc21)N1CCN(c2ccc(F)cc2)CC1,-4.22
4,Cc1ccccc1Cn1cc(CCC(=O)N2CCOCC2)c2ccccc21,8.97
5,COC(=O)C1(C)NC(c2ccc(C)cc2)C2C(=O)N(c3ccc(F)cc3)C(=O)C21 (stereo not shown),5.81
6,COC(=O)c1ccc(CNC(=O)COC(=O)c2cc(Cl)nc(Cl)c2)cc1,10
7,O=C(C1CCN(C2CCN(Cc3ccc4cc(F)ccc4n3)CC2)CC1)N1CCCC1,-78.3
8,COc1cccc(OCC(O)CN(CCO)Cc2ccccc2)c1.Cl (stereo not shown),4.38
9,Clc1ccc2oc(-c3cccnc3)nc2c1,1.68
10,Cc1ccc(/C=N/NC(=O)c2nnn(-c3nonc3N)c2CN(C)C2CCCCC2)cc1,1.9
11,COc1cccc(-c2c(C(=O)N/N=C/c3ccco3)nnn2-c2nonc2N)c1,19.3
12,CSc1sc(-c2ccnc(SCC(=O)C(C)(C)C)n2)c2c1C(=O)CC(C)(C)C2,14.6
13,O=C(Nc1nccs1)c1ccc(Br)cc1,7.92
14,CCn1cc(CNC(=O)c2cc(COc3ccc(F)cc3F)on2)cn1,13.2
15,Cc1ccc(NS(=O)(=O)c2cc(C(=O)Nc3cccc(N(C)S(C)(=O)=O)c3)ccc2C)c(C)c1,10.2
16,C#CCOC(=O)Nc1cnccc1C(F)(F)F,5.2
17,O=C(O)C(Cc1ccc(F)cc1)c1ccccc1 (stereo not shown),16.2
18,CCn1cc(C(=O)NCC(=O)OC)c2cc(OC)c(OC)cc2c1=O,3.86
19,Cc1ccc(CS(=O)(=O)Cc2ccc(C(=O)NC3CC3)o2)cc1,15.7
20,O=C1c2ccccc2C(=O)N1CCCOCc1c[nH]c(=O)[nH]c1=O,10.9
21,CCCCN1C2=C(C(=O)CCC2)C(c2ccc(Cl)c(Cl)c2)C2=C1c1ccccc1C2=O (stereo not shown),20.5
22,O=C(CCS(=O)(=O)Cc1ccccc1)Nc1ccc2c(c1)OCCO2,6.57

row,Compound,"hERG current change (%, negative = inhibition) at 1uM [%]"
1,COc1ccc([C@H]2C=C3CN(C(=O)OC(C)(C)C)S(=O)(=O)[C@H]3C[C@H]2OC(=O)c2cccs2)cc1,4.12
2,Cc1ccc(Nc2nnns2)cc1,15.9
3,Cc1ccc(NC(=O)C(OC(=O)c2cnc(C)cn2)c2ccccc2)c([N+](=O)[O-])c1 (stereo not shown),17.2
4,COc1cccc(OC)c1C(=O)N=c1sc2cc(S(C)(=O)=O)ccc2n1C,6.79
5,CC(=O)c1ccc(O)c(CC=C(C)C)c1,7.34
6,O=C(Nc1cccc(C(F)(F)F)c1)OCCN1CCN(Cc2ccccc2)CCC1=O,-7.18
7,CN(Cc1cccs1)C(=O)C1CCN(S(=O)(=O)c2ccccc2)CC1,-6.13
8,CCOC(=O)c1cc(C)n(-c2c(C)n(C)n(-c3ccccc3)c2=O)c1C,18.1
9,O=C(NNC(=S)NC(=O)C12CC3CC(CC(C3)C1)C2)c1ccncc1,14.1
10,COc1ccc([C@H]2CC(=O)C=C(c3cccc(C(C)C)c3)C2)cc1,9.78
11,CCOc1ccc(S(=O)(=O)N2CCN=C2c2ccccc2)cc1,-6.45
12,COc1cccc(CNC(=O)CCC2CCCN(C(=O)c3cscn3)C2)c1 (stereo not shown),11.3
13,COc1ccc(CCNC(=O)c2cc(S(=O)(=O)N3CCOCC3)ccc2F)cc1,7.05
14,CCC(CC)NC(=O)COC(=O)c1cc(SC)ccc1Cl,7.25
15,O=C(Nc1cc(SCCO)cc([N+](=O)[O-])c1)c1ccc(Br)o1,6.99
16,COC(=O)Cc1ccc(NC(=S)NCc2ccc(Cl)cc2)cc1,3.97
17,Cc1onc(-c2ccccc2Cl)c1C(=O)Nc1ccccc1,6.42
18,COc1ccc(NC(=O)C2CCN(c3cnccn3)CC2)cc1Cl,6.69
19,Cc1cc(C)c(C)c(S(=O)(=O)NCc2ccc(C(=O)N3CCCC3)cc2)c1C,12.4
